# ± gives the standard deviation of the averaged measurements. This is one part of the list.
# Test system: PfAP2-I AP2 domain 3 (GST-tagged)
# Experiment: gcPBM binding intensity (ln(normalized median fluorescence intensity)); higher = stronger DNA binding
# How it was run: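 The highest Masliner-normalised natural-log median intensity across replicate spots of either probe orientation is reported as binding intensity. GST-tagged P. falciparum DNA-binding domains expressed in E. coli were applied for 1 h to an Agilent 4 × 180k array of primer-extended double-stranded 36-bp intergenic genomic probes plus negative controls, and bound protein was detected with Alexa488 anti-GST antibody and scanned at 488 nm.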
row,Sequence,gcPBM binding intensity (ln)
1,ATACCCACTTAAAATACACACACACCGAAAAAAAAA [CACACA_site8867],8.15 ± 0.6
2,ATATATTAATAATTTTGTACGCATTTCCTTTTTATT [XGTACX_site1638],8.03 ± 0.49
3,GAAAATATTTCCGTATGTACTTATTTTAGTCTACTA [XGTACX_site471],7.83 ± 0.46
4,AAAAAAAAAAAAAAATGTACAAATAAAGAAATATGA [XGTACX_site4371],8.1 ± 0.32
5,AATATTTTCTTGTACGCATGCACATCCAAATTATAT [TGCATGCA_site873],8.49 ± 0.4
6,TGACCTGTTCAGGTAACACACATATAAACACATACA [CACACA_site4186],7.86 ± 0.38
7,ATACATAAATATATATGTACATATATATATATATAT [XGTACX_site1055],9.3 ± 0.64
8,TGCAGTCTGGAGAAACGTACATAGTATCTGGTAGCT [XGTACX_site4937],7.75 ± 0.74
9,AAAATATATTTAAATTGTACACGTTACCATAACAAT [XGTACX_site2598],7.93 ± 0.45
10,CTTTTTATTTAGAACACACACAAAAAAAAAAAAAAA [CACACA_site1761],8.08 ± 0.59
11,ATGAATACAAAATTATACAAAATTATCAAAAGTATG [CACACA_negctrl_site1453],7.5 ± 0.49
12,TAATAACATACAGACACACACGTAAAAGCACGTGTA [CACACA_site4299],8.91 ± 0.41
13,TACTTTCAAAAGATCACACATATATATATATATATA [CACACA_site5630],9.3 ± 0.33
14,ATGACATGTTCTAAATGTACATTTTTTAACCCTTTT [XGTACX_site1858],7.68 ± 0.63
15,ATAAATAAATAAGTACATATATATATGTATATATAT [TGCATGCA_negctrl_site223],8.4 ± 0.31
16,TATACAAGTATATAGGTGCATATATAAGTATATATT [GTGCAC_site9994],10.5 ± 0.53
17,TATGGTTACATTATATGTACTAAACGAATATTTTTA [XGTACX_site5694],7.43 ± 0.47
18,ATTATAATGTTAATGTGTACATATGATTCCTTAATT [XGTACX_site181],7.97 ± 0.51
19,TATGTTTTTACATATTGTACATATTCTTGTAATACG [XGTACX_site1179],7.65 ± 0.38
20,TATGTGTGCAAAAACTGTACACATTAAAGGTATATA [XGTACX_site7627],9.32 ± 0.28
21,CATACATACAAACACACACACACACCCATATATATA [CACACA_site2918],8.38 ± 0.6
22,TTTTTAACCAAACATCAAAACATATTTTTTTGTTAT [CACACA_negctrl_site385],7.54 ± 0.39

row,Sequence,gcPBM binding intensity (ln)
1,GTATACCTTTTGACATGTACGTATGTATATTTGGGT [XGTACX_site720],8.07 ± 0.35
2,ACTACATTATGTCATACATGCATACATACGTGGTTT [TGCATGCA_site732],8.23 ± 0.81
3,AGTAATTTAAGGAATACACACAAGAAAAAAATAAGA [CACACA_site6177],7.92 ± 0.83
4,CATTAAAAGTATAATTGTACTTTTCATTTATATATT [XGTACX_site7536],7.64 ± 0.42
5,TAATATATATATATATGTACATATATATTATGTATA [XGTACX_site4690],7.76 ± 0.28
6,TTCTCAAAATTAAAATAACAGATTAACGAACTAACG [CACACA_negctrl_site1720],7.74 ± 0.18
7,AGATTATTTAGAATGTGTACATATTACACATACATG [XGTACX_site8634],7.97 ± 0.23
8,AAAAGAAATATTTATACACACACACTAACATATATA [CACACA_site8580],7.78 ± 0.4
9,TTATATATAATTACATGTACGTAGTATTATTTAAAT [XGTACX_site3418],7.92 ± 0.26
10,TTATCATTTTAATGGTGTACTCAATAAAAACTTTAA [XGTACX_site4595],7.86 ± 0.014
11,GTGAAAAAAAACATATGTACTTATACACTAATCTAT [XGTACX_site7600],7.91 ± 0.41
12,TGGTAAAGGAGCAAGATGATAAATCTCCATAACTTT [CACACA_negctrl_site492],7.58 ± 0.67
13,ATGTCTATAATAAGAACACACATATATTTAATTTAA [CACACA_site7394],7.64 ± 0.44
14,GTTGGTACCTTACTTTTACACACTTTTTTTTTTTTT [CACACA_site8441],7.96 ± 0.66
15,TATATATATATGTATACACACATACAAATATGTAAA [CACACA_site9238],9.27 ± 0.11
16,CTATATTCGTTTAATAGTACATATATAACTAGACAA [XGTACX_site5770],7.82 ± 0.35
17,TACACAAGCGGACACACACACATATATATATATATA [CACACA_site4832],9.62 ± 0.47
18,AACATTCTAAAACACACACACACATATATATATATA [CACACA_site1052],9.38 ± 0.29
19,TATATATAAAAAAGCACACATACATACATACATAAT [CACACA_site890],8.12 ± 0.52
20,TTTTCACTTTTAAAAACATGCATACTTTATAAAATA [TGCATGCA_site967],8.71 ± 0.56
21,AAAAAAAAAAAACACACACACACATAAATATATATA [CACACA_site149],7.97 ± 0.63
22,TGTAAATTTGGCATCACACATAAATAAACATATAAA [CACACA_site4497],7.86 ± 0.51

# From the supplement of paper PMC11417369
